No constants are given. Whether binding was seen depends on the method and setting. For some assays here: Binding seen in cells or lysates may run through a third protein. Some entries that bind do so weakly or less than the wild type. For some assays here: Where a sequence is shown, tags or fusion partners need not be part of it.
T1: DOG1-Like 3 (DOGL3), yeast two-hybrid fusion (Arabidopsis) (UniProt Q58FV0)
T1 sequence: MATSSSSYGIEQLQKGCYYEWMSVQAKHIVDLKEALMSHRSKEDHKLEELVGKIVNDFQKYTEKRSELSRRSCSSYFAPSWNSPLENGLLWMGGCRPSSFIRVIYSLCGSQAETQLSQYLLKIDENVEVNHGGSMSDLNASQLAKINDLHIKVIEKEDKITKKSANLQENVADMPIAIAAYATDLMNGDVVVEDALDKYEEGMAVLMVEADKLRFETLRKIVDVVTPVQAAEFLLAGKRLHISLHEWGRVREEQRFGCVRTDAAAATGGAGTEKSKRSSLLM

By UniProt entry, the sequences of proteins in these tests, tags left out.
UniProt O49686: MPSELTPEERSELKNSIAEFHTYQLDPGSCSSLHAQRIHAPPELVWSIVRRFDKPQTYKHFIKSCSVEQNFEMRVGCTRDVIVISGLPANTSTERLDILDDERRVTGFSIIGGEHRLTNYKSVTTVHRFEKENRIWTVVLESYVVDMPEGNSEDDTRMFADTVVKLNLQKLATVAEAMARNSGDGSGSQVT
UniProt O04719: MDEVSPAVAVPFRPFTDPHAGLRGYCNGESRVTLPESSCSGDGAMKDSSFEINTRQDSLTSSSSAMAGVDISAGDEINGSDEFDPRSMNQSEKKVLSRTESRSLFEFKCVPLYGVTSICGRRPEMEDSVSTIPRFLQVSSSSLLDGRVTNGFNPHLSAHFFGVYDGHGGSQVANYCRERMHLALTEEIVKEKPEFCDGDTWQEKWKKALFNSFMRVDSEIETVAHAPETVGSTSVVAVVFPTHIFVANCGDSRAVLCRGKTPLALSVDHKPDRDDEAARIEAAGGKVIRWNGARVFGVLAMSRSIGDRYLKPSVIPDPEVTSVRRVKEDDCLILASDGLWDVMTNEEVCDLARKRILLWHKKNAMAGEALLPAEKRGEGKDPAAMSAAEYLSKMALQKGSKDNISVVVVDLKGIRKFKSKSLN
UniProt P49597: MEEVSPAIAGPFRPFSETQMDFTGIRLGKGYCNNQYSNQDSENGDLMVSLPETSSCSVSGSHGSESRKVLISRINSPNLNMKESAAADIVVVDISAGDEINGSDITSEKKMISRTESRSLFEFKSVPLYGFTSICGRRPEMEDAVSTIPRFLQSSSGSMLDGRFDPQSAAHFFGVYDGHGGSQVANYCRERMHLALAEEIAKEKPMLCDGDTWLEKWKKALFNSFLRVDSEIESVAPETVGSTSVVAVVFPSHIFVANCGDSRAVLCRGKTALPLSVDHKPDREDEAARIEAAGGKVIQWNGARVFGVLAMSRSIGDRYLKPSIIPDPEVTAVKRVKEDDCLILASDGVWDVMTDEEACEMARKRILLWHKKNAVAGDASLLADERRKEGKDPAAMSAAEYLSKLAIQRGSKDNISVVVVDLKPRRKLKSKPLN

T2: GAL4BD-DOG1 (Arabidopsis) (UniProt A0SVK0)
T2 sequence: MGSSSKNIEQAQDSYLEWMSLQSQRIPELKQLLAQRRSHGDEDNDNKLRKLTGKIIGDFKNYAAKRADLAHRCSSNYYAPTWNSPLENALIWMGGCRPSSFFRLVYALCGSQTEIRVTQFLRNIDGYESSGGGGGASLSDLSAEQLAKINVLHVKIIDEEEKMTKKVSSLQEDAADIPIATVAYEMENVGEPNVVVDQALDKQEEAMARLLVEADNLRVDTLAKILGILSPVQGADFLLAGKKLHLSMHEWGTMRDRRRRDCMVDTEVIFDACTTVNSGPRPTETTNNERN

T3: HA-DOG1 (Arabidopsis) (UniProt A0SVK0)
T3 sequence: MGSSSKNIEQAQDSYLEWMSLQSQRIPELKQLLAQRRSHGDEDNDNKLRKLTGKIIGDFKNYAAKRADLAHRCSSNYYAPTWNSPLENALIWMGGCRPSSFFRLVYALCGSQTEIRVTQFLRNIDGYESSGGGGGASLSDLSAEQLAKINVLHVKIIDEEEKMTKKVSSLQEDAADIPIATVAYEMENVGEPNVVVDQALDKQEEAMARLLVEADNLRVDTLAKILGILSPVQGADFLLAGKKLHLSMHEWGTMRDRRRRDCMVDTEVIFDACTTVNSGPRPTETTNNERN

T4: GAL4AD-AHG1 (Arabidopsis) (UniProt Q9FLI3)
T4 sequence: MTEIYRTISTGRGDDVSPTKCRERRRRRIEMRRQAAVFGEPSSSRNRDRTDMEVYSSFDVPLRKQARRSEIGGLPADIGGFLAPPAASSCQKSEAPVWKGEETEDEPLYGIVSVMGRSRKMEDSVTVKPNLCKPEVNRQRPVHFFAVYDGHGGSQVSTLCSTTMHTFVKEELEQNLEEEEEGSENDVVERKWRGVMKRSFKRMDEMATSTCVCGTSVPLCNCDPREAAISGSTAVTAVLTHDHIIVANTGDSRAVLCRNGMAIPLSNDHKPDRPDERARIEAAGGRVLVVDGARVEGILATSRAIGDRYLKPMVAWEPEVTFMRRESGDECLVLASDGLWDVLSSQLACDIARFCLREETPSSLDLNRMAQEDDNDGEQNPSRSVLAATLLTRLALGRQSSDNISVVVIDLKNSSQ


Experiments:
[1] = target: T1, DOG1-Like 3 (DOGL3), yeast two-hybrid fusion (Arabidopsis); experiment: two-hybrid; Matchmaker Gold, Y2H gold strain; fusions from pASGW-attR and pACTGW-attR (GAL4BD-DOG1 and GAL4AD-PP2Cs in Fig. 4a); growth on QDO/A plates, 7 days
[2] = target: T2, GAL4BD-DOG1 (Arabidopsis); experiment: as above
HA-DOG1 (Arabidopsis) = target: T3, HA-DOG1 (Arabidopsis); experiment: co-IP; co-expression in N. benthamiana leaves; extraction buffer 50 mM Na-phosphate pH 7.4, 150 mM NaCl, 0.1% NP-40, 1 mM DTT; anti-HA matrix 3 h at 4 °C; blots with anti-GFP and anti-HA; leaves with or without 100 μM ABA or 50 μM hemin for 24 h
HA-PYR1 (Arabidopsis) = HA-PYR1 (Arabidopsis) (UniProt O49686); experiment: as above
[3] = target: T4, GAL4AD-AHG1 (Arabidopsis); experiment: two-hybrid; Matchmaker Gold, Y2H gold strain; fusions from pASGW-attR and pACTGW-attR (GAL4BD-DOG1 and GAL4AD-PP2Cs in Fig. 4a); growth on QDO/A plates, 7 days

| Molecule | binding [1] | binding [2] | binding [3] | also measured |
| --- | --- | --- | --- | --- |
| GAL4AD-ABI2 (from UniProt O04719 1-423) (enzyme) | no binding | no binding | – | – |
| GAL4AD-ABI1 (from UniProt P49597 1-434) (enzyme) | no binding | no binding | – | – |
| YFP-AHG1 (expressed in N. benthamiana) (enzyme, UniProt Q9FLI3 1-416) MTEIYRTISTGRGDDVSPTKCRERRRRRIEMRRQAAVFGEPSSSRNRDRTDMEVYSSFDVPLRKQARRSEIGGLPADIGGFLAPPAASSCQKSEAPVWKGEETEDEPLYGIVSVMGRSRKMEDSVTVKPNLCKPEVNRQRPVHFFAVYDGHGGSQVSTLCSTTMHTFVKEELEQNLEEEEEGSENDVVERKWRGVMKRSFKRMDEMATSTCVCGTSVPLCNCDPREAAISGSTAVTAVLTHDHIIVANTGDSRAVLCRNGMAIPLSNDHKPDRPDERARIEAAGGRVLVVDGARVEGILATSRAIGDRYLKPMVAWEPEVTFMRRESGDECLVLASDGLWDVLSSQLACDIARFCLREETPSSLDLNRMAQEDDNDGEQNPSRSVLAATLLTRLALGRQSSDNISVVVIDLKNSSQ | – | – | – | binding (HA-DOG1 (Arabidopsis)): binds; binding (HA-PYR1 (Arabidopsis)): no binding |
| ABI FIVE BINDING PROTEIN 2 (AFP2), yeast two-hybrid fusion (protein, UniProt Q9LMX5 1-348) MGEASRQQRAWNREMTVTTNLSLDIDKYPRDLLRGFMSENGGGRVFHGGETNCDDESTIELNLGLSLGGRFGVDKTPRKLKRSSSVLDTVPFNDSTVAEPENYTVGLERTTSLPAEMEEEWRKRKEMQSLRRMEAKRRRCEKQSFRVGNSDDQTVSFENERWVTASKSGFLQRHLVSSNRQVCGVDSDGGGATGGGSSSSLSELDNKNQQGSSNSCNDERSPKIVAGCSSNSGSQGTERPSVTRANKVNENENEKRVRSEDSVDRKGKGMATSTGLVDMPCVFTKGDGPNGRRVDGILYKYGKGEEVRIMCICHGSFLTPAEFVKHGGGGDVDRPLRHIVVNTSSSTF | – | – | binds | – |
| TOPLESS (TPL), yeast two-hybrid fusion (protein, UniProt Q94AI7 1-1131) MSSLSRELVFLILQFLDEEKFKETVHKLEQESGFFFNMKYFEDEVHNGNWDEVEKYLSGFTKVDDNRYSMKIFFEIRKQKYLEALDKHDRPKAVDILVKDLKVFSTFNEELFKEITQLLTLENFRENEQLSKYGDTKSARAIMLVELKKLIEANPLFRDKLQFPTLRNSRLRTLINQSLNWQHQLCKNPRPNPDIKTLFVDHSCGPPNGARAPSPVNNPLLGGIPKAGGFPPLGAHGPFQPTASPVPTPLAGWMSSPSSVPHPAVSAGAIALGGPSIPAALKHPRTPPTNASLDYPSADSEHVSKRTRPMGISDEVNLGVNMLPMSFSGQAHGHSPAFKAPDDLPKTVARTLSQGSSPMSMDFHPIKQTLLLVGTNVGDIGLWEVGSRERLVQKTFKVWDLSKCSMPLQAALVKEPVVSVNRVIWSPDGSLFGVAYSRHIVQLYSYHGGEDMRQHLEIDAHVGGVNDISFSTPNKQLCVITCGDDKTIKVWDAATGVKRHTFEGHEAPVYSVCPHYKENIQFIFSTALDGKIKAWLYDNMGSRVDYDAPGRWCTTMAYSADGTRLFSCGTSKDGESFIVEWNESEGAVKRTYQGFHKRSLGVVQFDTTKNRYLAAGDDFSIKFWDMDAVQLLTAIDGDGGLQASPRIRFNKEGSLLAVSGNENVIKIMANSDGLRLLHTFENISSESSKPAINSIAAAAAAAATSAGHADRSANVVSIQGMNGDSRNMVDVKPVITEESNDKSKIWKLTEVSEPSQCRSLRLPENLRVAKISRLIFTNSGNAILALASNAIHLLWKWQRNERNATGKATASLPPQQWQPASGILMTNDVAETNPEEAVPCFALSKNDSYVMSASGGKISLFNMMTFKTMATFMPPPPAATFLAFHPQDNNIIAIGMDDSTIQIYNVRVDEVKSKLKGHSKRITGLAFSNVLNVLVSSGADAQLCVWNTDGWEKQRSKVLPLPQGRPNSAPSDTRVQFHQDQAHFLVVHETQLAIYETTKLECMKQWAVRESLAPITHATFSCDSQLVYASFMDATVCVFSSANLRLRCRVNPSAYLPASLSNSNVHPLVIAAHPQEPNMFAVGLSDGGVHIFEPLESEGKWGVAPPAENGSASGAPTAPSVGASASDQPQR | – | – | binds | – |

Source: paper PMC5989226 (Nature Communications, 2018)
